Results published in patent publication US10299477B2 (priority 2015, dated 2019).

Legend:
[1] = test system: Phytophthora infestans; assay type: in vivo; settings: Late blight on tomato; for Test F control value: 250 ppm sprayed before inoculation, 5-10 days after inoculation; for Test F (control value class): 250 ppm spray, 2.5 ml/pot, evaluated 5-10 days after inoculation
[2] = test system: Magnaporthe grisea; assay type: in vivo; settings: Blast on rice

Structure (SMILES) | Test F control value [1] | Test A control value [2] | Test F (control value class) [1]
CN1C(=O)CCC(c2ccccc2)=C1c1ncc(Cl)cc1Cl [Compound 1] | L (L shows 50% or less of control values) | H (H shows more than 50% of control values) | 
Cn1c(-c2ncc(Cl)cc2Cl)c(-c2ccccc2)ccc1=O [Compound 2] | L (L shows 50% or less of control values) | H (H shows more than 50% of control values) | 
CCn1c(-c2ncc(Cl)cc2Cl)c(-c2c(F)cccc2F)ccc1=O [Compound 6] |  | H (H shows more than 50% of control values) | 
CCn1c(-c2c(F)cccc2F)c(-c2cc(OC)cc(OC)c2Br)ccc1=O [Compound 16] |  | H (H shows more than 50% of control values) | 
CCn1c(-c2c(F)cccc2F)c(-c2cc(OC)cc(OC)c2Cl)ccc1=O [Compound 32] | H (H shows more than 50% of control values) | H (H shows more than 50% of control values) | 
CCn1c(-c2c(F)cccc2F)c(-c2cc(OC)ccc2Cl)cc(Cl)c1=O [Compound 54, 3-chloro-5-(2-chloro-5-methoxyphenyl)-6-(2,6-difluorophenyl)-1-ethylpyridine-2(1H)-one] | L (L shows 50% or less of control values) | H (H shows more than 50% of control values) | 
CCn1c(-c2c(F)cccc2F)c(-c2cc(OCOC)ccc2Cl)ccc1=O [Compound 97, 5-(2-chloro-5-(methoxymethoxy)phenyl)-6-(2,6-difluorophenyl)-1-ethylpyridine-2(1H)-one] | L (L shows 50% or less of control values) | H (H shows more than 50% of control values) | 
CCn1c(-c2c(F)cccc2F)c(-c2cc(OCC#N)ccc2Cl)ccc1=O [Compound 98] | L (L shows 50% or less of control values) | H (H shows more than 50% of control values) | 
CCOc1ccc(Cl)c(-c2ccc(=O)n(CC)c2-c2c(F)cccc2F)c1 [Compound 99] | L (L shows 50% or less of control values) | H (H shows more than 50% of control values) | 
CCn1c(-c2c(F)cccc2F)c(-c2cccc(OCOC)c2)ccc1=O [Compound 101] | L (L shows 50% or less of control values) | H (H shows more than 50% of control values) | 
CCn1c(-c2c(F)cccc2F)c(-c2cccc(OCC#N)c2)ccc1=O [Compound 102] | L (L shows 50% or less of control values) | H (H shows more than 50% of control values) | 
CCOc1cccc(-c2ccc(=O)n(CC)c2-c2c(F)cccc2F)c1 [Compound 103] | L (L shows 50% or less of control values) | H (H shows more than 50% of control values) | 
CCn1c(-c2c(F)cccc2F)c(-c2cc(OCOC)ccc2Cl)cc(Br)c1=O [Compound 126] | L (L shows 50% or less of control values) | H (H shows more than 50% of control values) | 
CCn1c(-c2c(F)cccc2F)c(-c2cc(OCOC)ccc2Cl)cc(Cl)c1=O [Compound 127, 3-chloro-5-(2-chloro-5-(methoxymethoxy)phenyl)-6-(2,6-difluorophenyl)-1-ethylpyridine-2(1H)-one] | L (L shows 50% or less of control values) | H (H shows more than 50% of control values) | 
CCn1c(-c2c(F)cccc2F)c(-c2cc(OCC#N)ccc2Cl)cc(Br)c1=O [Compound 128] | L (L shows 50% or less of control values) | H (H shows more than 50% of control values) | 
CCn1c(-c2c(F)cccc2F)c(-c2cc(OCC#N)ccc2Cl)cc(Cl)c1=O [Compound 129] | L (L shows 50% or less of control values) | H (H shows more than 50% of control values) | 
COc1cc(OC)c(Cl)c(-c2ccc(=O)n(C)c2-c2c(F)cc(F)cc2F)c1 [Compound 136, 5-(2-chloro-3,5-dimethoxyphenyl)-1-methyl-6-(2,4,6-trifluorophenyl)pyridine-2(1H)-one] | H (H shows more than 50% of control values) | H (H shows more than 50% of control values) | 
Cn1c(-c2c(F)cccc2F)c(-c2ccccc2F)ccc1=O [Compound 143] | L (L shows 50% or less of control values) | H (H shows more than 50% of control values) | 
Cn1c(-c2c(F)cccc2F)c(-c2ccccc2F)cc(Cl)c1=O [Compound 144] | L (L shows 50% or less of control values) | H (H shows more than 50% of control values) | 
Cn1c(-c2c(F)cccc2F)c(-c2ccccc2F)cc(Br)c1=O [Compound 145] | H (H shows more than 50% of control values) | H (H shows more than 50% of control values) | 
CCn1c(-c2c(F)cccc2F)c(-c2ccccc2C(F)(F)F)ccc1=O [Compound 146] | L (L shows 50% or less of control values) | H (H shows more than 50% of control values) | 
CCn1c(-c2c(F)cccc2F)c(-c2ccccc2C(F)(F)F)cc(Cl)c1=O [Compound 147] | L (L shows 50% or less of control values) | L (L shows 50% or less of control values) | 
CCn1c(-c2c(F)cccc2F)c(-c2ccccc2C(F)(F)F)cc(Br)c1=O [Compound 148] | L (L shows 50% or less of control values) | H (H shows more than 50% of control values) | 

Structure (SMILES) | Test F control value [1] | Test A control value [2] | Test F (control value class) [1]
CCN1C(=O)CCC(c2cc(OC)cc(OC)c2)=C1c1c(F)cccc1Cl [Compound 149] | L (L shows 50% or less of control values) | H (H shows more than 50% of control values) | 
CCn1c(-c2c(F)cccc2Cl)c(-c2cc(OC)cc(OC)c2)ccc1=O [Compound 150] | L (L shows 50% or less of control values) | L (L shows 50% or less of control values) | 
CCn1c(-c2c(F)cccc2Cl)c(-c2cc(OC)cc(OC)c2Br)ccc1=O [Compound 151] | L (L shows 50% or less of control values) | H (H shows more than 50% of control values) | 
CCn1c(-c2c(F)cccc2Cl)c(-c2cc(OC)cc(OC)c2Cl)ccc1=O [Compound 152] | L (L shows 50% or less of control values) | H (H shows more than 50% of control values) | 
CCn1c(-c2c(F)cccc2F)c(-c2cccc(F)c2)ccc1=O [Compound 153] | H (H shows more than 50% of control values) | H (H shows more than 50% of control values) | 
CCn1c(-c2c(F)cccc2F)c(-c2cccc(F)c2)cc(Cl)c1=O [Compound 154] | L (L shows 50% or less of control values) | H (H shows more than 50% of control values) | 
CCn1c(-c2c(F)cccc2F)c(-c2cccc(F)c2)cc(Br)c1=O [Compound 155] | L (L shows 50% or less of control values) | H (H shows more than 50% of control values) | 
CCN1C(=O)CCC(c2cccc(F)c2)=C1c1c(F)cccc1F [Compound 156] | H (H shows more than 50% of control values) | H (H shows more than 50% of control values) | 
Cn1c(-c2c(F)cccc2F)c(-c2ccccc2C(F)(F)F)ccc1=O [Compound 157] | L (L shows 50% or less of control values) | H (H shows more than 50% of control values) | 
Cn1c(-c2c(F)cccc2F)c(-c2ccccc2C(F)(F)F)cc(Cl)c1=O [Compound 158] | L (L shows 50% or less of control values) | H (H shows more than 50% of control values) | 
Cn1c(-c2c(F)cccc2F)c(-c2ccccc2C(F)(F)F)cc(Br)c1=O [Compound 159] | L (L shows 50% or less of control values) | H (H shows more than 50% of control values) | 
COc1cc(F)c(-c2c(-c3cccc(OC)c3Cl)cc(Cl)c(=O)n2C)c(F)c1 [Compound 788] |  |  | L (L shows 50% or less of control values)
CCn1c(-c2c(F)cc(F)cc2F)c(-c2cc(F)cc(F)c2)ccc1=O [Compound 789] |  |  | L (L shows 50% or less of control values)
CCn1c(-c2c(F)cc(OC)cc2F)c(-c2cc(F)cc(F)c2)ccc1=O [Compound 790] |  |  | L (L shows 50% or less of control values)
CCn1c(-c2c(F)cc(F)cc2F)c(-c2cc(F)cc(F)c2)cc(Cl)c1=O [Compound 791] |  |  | L (L shows 50% or less of control values)
CCn1c(-c2c(F)cc(F)cc2F)c(-c2cc(O)ccc2Cl)cc(Cl)c1=O [Compound 792] |  |  | H (H shows more than 50% of control values)
CCOc1ccc(Cl)c(-c2cc(Cl)c(=O)n(CC)c2-c2c(F)cc(F)cc2F)c1 [Compound 793] |  |  | L (L shows 50% or less of control values)
CCn1c(-c2c(F)cc(F)cc2F)c(-c2cc(OCC#N)ccc2Cl)cc(Cl)c1=O [Compound 794] |  |  | L (L shows 50% or less of control values)
CCn1c(-c2c(F)cc(F)cc2F)c(-c2cc(OCOC)ccc2Cl)cc(Cl)c1=O [Compound 795] |  |  | L (L shows 50% or less of control values)
CCOc1ccc(Cl)c(-c2cc(Cl)c(=O)n(CC)c2-c2c(F)cc(OC)cc2F)c1 [Compound 796] |  |  | L (L shows 50% or less of control values)
CCn1c(-c2c(F)cc(F)cc2F)c(-c2cc(F)cc(F)c2)cc(Br)c1=O [Compound 797] |  |  | L (L shows 50% or less of control values)
CCn1c(-c2c(F)cc(OC)cc2F)c(-c2cc(F)cc(F)c2)cc(Cl)c1=O [Compound 798] |  |  | L (L shows 50% or less of control values)
CCn1c(-c2c(F)cc(OC)cc2F)c(-c2cc(F)cc(F)c2)cc(Br)c1=O [Compound 799] |  |  | L (L shows 50% or less of control values)
